Experimental data taken from PubChem BioAssay AID588855 (National Center for Advancing Translational Sciences (NCATS), 2011).
Several values for one entry are separate records, joined by “and”; a condition that tells them apart may be missing. Identical values can stand only once. The campaign covered roughly 410,000 compounds. About 5,000 (1.2%) were called active. The shares of active, inactive and inconclusive entries below differ from those in the screen. Calls follow the shape of the dose curve; as a rule, active = well fitted inhibition curve with a large enough effect; inconclusive = small, poorly fitted or top-dose-only effect; inactive = no such curve, though single readings can be large or run the other way. A potency beside an inconclusive call is a rough fit, not a confirmed value.

Assay: qHTS for Inhibitors of TGF-b; also: nearly all actives have a fitted effect of over 65% in size
Details: HepG2 CAGA-GFP TGF-b/SMAD3 reporter, GFP fluorescence, 18 h, TGF-beta stimulated, 500 pg/mL final; series mostly up to 46.1 µM; activity, negative = inhibition: at the top concentration
Source text: TGF-b is a main component in the TGF-b signaling pathway which plays diverse roles in cellular and development pathways. TGF-b is the mediated by the transcription factors Smads. Although the Smad-dependent pathway is the primary canonical TGF-b signaling node, TGF-b1 can also activate alternative signaling pathways, including those involving MAPK (ERK, JNK and p38). This interaction may mediate or enhance Smad-dependent responses, or can exert Smad-independent effects. The complexity of this signaling cascade allows the TGF-b superfamily to perform unique, overlapping or redundant functions. We believe that targeting the TGF-beta pathway at the Smad-transcription factor level may eliminate the consequences of disrupting the entire pathway and offer specificity without affecting other signaling pathways. Smad3 is the primary transducer of TGF-b's signals and Smad3 regulates many functions attributed to TGF-b signaling. We hypothesize that Smad3 inhibitors will selectively eliminate Smad3-specific TGF-beta signals without undesired off-target effects. We aim to identify Smad3-small molecule antagonists using a quantitative high throughput screening (qHTS) approach.
A high-throughput assay was developed to screen the NIH Molecular Libraries Small Molecule Repository (MLSMR). This is a cell based assay, where TGF-b is tagged with GFP. A counterscreen is run that looks at cytotoxicity (please see summary AID).
MH087449NIH Chemical Genomics Center [NCGC]
NIH Molecular Libraries Probe Centers Network [MLPCN]
Assay Submitter (PI): Sushil Rane, National Institute of […]
Suspensions of trypsinized HEPG2 CAGA-GFP cells were dispensed into white, tissue culture-treated, solid 1536-well plates at 5uL/well (1000 cells/well final concentration) in DMEM medium supplemented with 1% FBS. Plates were incubated at 37 degrees C for 2 hours, after which 23 nL of compounds or DMSO were delivered to each well using a pin tool. One uL of recombinant TGF-beta in DMEM (1% FBS) was then dispensed (500 pg/mL final concentration), and plates were incubated at 37 degrees C for 18 hours. The plates were measured on an Acumen eX3 Explorer plate reader for GFP fluorescence (ex488/em500-530). GFP values were calculated by determining the mean GFP fluorescence of individual cells, and compiling these values for each well to determine a total well GFP signal. The %Activity was determined from the corrected fluorescence values. A titration of the known TGF-B inhibitor SB431542 was included to monitor plate performance, while unstimulated HEPG2 (-TGF-B) control wells were used to normalize %Activity of identified inhibitors; unstimulated wells corresponded to 100%Activity (full inhibition), while stimulated cell controls (+DMSO) were used to normalize 0%Activity (no inhibition).
Concentration-response curves were fitted to the signals arising from the resulting fluorescence. The concentration-effect curves were then classified based on curve quality (r2), response magnitude and degree of measured activity, and compounds were subsequently categorized based on their curve class.
Potency is read from the fitted curve at half-maximal effect; tags tell the direction and shape of the fitted curve.

Compound	Potency	activity, negative = inhibition
CC[C@H]1c2[nH]c3ccc(C(C)C)cc3c2[C@@H]2CCN3C(=O)CCC[C@H]1[C@H]23	inconclusive: 35.5 µM [inhibitor, single point] and inconclusive: 15.8 µM [inhibitor, single point]	–
CC(NC(=O)c1cc2c(=O)n3ccccc3nc2n(CC2CCCO2)c1=N)c1ccccc1 (configuration not stated)	–	inactive: 25.2%
Cc1cccc(C)c1-n1c(C)cc(/C=N/NC(=O)c2ccncc2)c1C	–	inactive: 16.6%
Cc1c(C(=O)NCCSCc2cccc(C(F)(F)F)c2)cnn1-c1ccc(Cl)cc1	inconclusive: 25.1 µM [inhibitor, single point]	–
COc1ccc(Br)c2c1-c1nc(NC(=O)c3ccccc3SC)sc1C2	inconclusive: 5.62 µM [inhibitor, full curve, poor fit]	–
CCOC(=O)c1c(NC(NC(=O)C(C)C)C(Cl)(Cl)Cl)sc2c1CCC2 (configuration not stated)	inconclusive: 22.4 µM [inhibitor, single point]	–
CCOc1ccc(N2CC(c3nc4ccccc4n3CCCOc3ccc(OC)cc3)CC2=O)cc1 (configuration not stated)	–	inactive: -27.6%
CC(OC(=O)c1ccc2c(c1)NC(=O)CS2)C(=O)c1ccc(F)cc1 (configuration not stated)	–	inactive: 20%
C=CCn1c(Cc2c(C)[nH]c3ccccc23)nnc1SCC(=O)NCc1ccc(F)cc1	–	inactive: 9.48%
CCCN(CCC)Cc1c(C(=O)N/N=C/c2c[nH]c3ccccc23)nnn1-c1nonc1N	inconclusive: 35.5 µM [inhibitor, single point]	–
COC(=O)c1cc(Cl)c(NC(=O)/C=C/c2ccc(Cl)cc2Cl)cc1OC	inconclusive: 15.8 µM [inhibitor, partial curve, poor fit]	–
Cc1ccc(S(=O)(=O)Nc2nncs2)cc1	–	inactive: -11.5%
O=C(NC1CC2CCC(C1)N2Cc1ccccc1)c1ccccc1Br (configuration not stated)	–	inactive: 0.79%
COc1cc(S(=O)(=O)N2CCN=C2c2ccccc2)ccc1F	–	inactive: -18%
CCOC(=O)c1cc(-c2ccc(F)cc2)n(CCC(=O)Nc2ccccc2OC)c1C	inconclusive: 35.5 µM [inhibitor, single point]	–
CC(Sc1ncc(S(=O)(=O)c2ccc(C(C)C)cc2)c(N)n1)C(=O)Nc1ccccc1 (configuration not stated)	inconclusive: 14.1 µM [inhibitor, single point]	–
Cc1ccc(CC(=O)NNC(=O)c2ccncc2)cc1C	–	inactive: -6.37%
COc1ccc(/C=C2\SC(=S)N(C(C(=O)O)c3ccccc3)C2=O)c(OC)c1 (configuration not stated)	inconclusive: 35.5 µM [inhibitor, single point]	–
CC(C)(C)c1ccc(CN2C3=NCCCN3c3ccccc32)cc1	inconclusive: 35.5 µM [inhibitor, single point]	–
Cc1ccc(CSc2nc(=O)c3c(C)cc(C)nc3n2C2CC2)cc1	inconclusive: 35.5 µM [inhibitor, partial curve, poor fit]	–
c1ccc2nc(-c3nc4ccccc4o3)ccc2c1	inconclusive: 0.112 µM [inhibitor, full curve, poor fit]	–

Compound	Potency	activity, negative = inhibition
COc1ccc(CNC(=O)C(C)OC(=O)CCN2C(=O)C3CC=CCC3C2=O)cc1 (configuration not stated)	inconclusive: 31.6 µM [inhibitor, single point]	–
COc1ccc(-c2c[n+](CC(=O)c3ccccc3)c3n2CCCCC3)cc1	–	inactive: -10.6%
O=C(CSc1ccc(Cl)cc1)c1ccco1	–	inactive: -17.6%
O=C(Nc1cc2c(cc1Br)OCCO2)c1ccco1	inconclusive: 35.5 µM [inhibitor, single point]	–
CC(=O)C1=C(C)NC(C)=C(C(C)=O)C1c1cn(-c2ccccc2)nc1-c1cccs1	inconclusive: 12.6 µM [inhibitor, single point]	–
O=C(c1ccc(C(F)(F)F)cc1)N1CCN(S(=O)(=O)c2ccc3c(c2)OCCCO3)CC1	inconclusive: 22.4 µM [inhibitor, single point]	–
O=C(CCl)N=c1sccn1Cc1ccc(Cl)cc1Cl	inconclusive: 35.5 µM [inhibitor, single point]	–
Cc1ccc(CNC(=O)c2c(-c3ccccc3F)noc2C)o1	–	inactive: 0.852%
ClCc1nnc(-c2ccccc2)o1	inconclusive: 15.8 µM [inhibitor, single point]	–
Cc1ccccc1-c1noc(CSc2nnc(Cc3ccccc3)n2-c2ccc(F)cc2)n1	inconclusive: 22.4 µM [inhibitor, single point]	–
COc1ccc(-c2noc(CSc3nnc(-c4ccncc4)n3-c3ccccc3)n2)cc1	inconclusive: 2.51 µM [inhibitor, full curve, poor fit]	–
COc1ccc(CCNC(=O)c2cc3c(=O)n4cccc(C)c4nc3n(CC3CCCO3)c2=N)cc1 (configuration not stated)	–	inactive: 5.24%
O=C(NC(=S)Nc1ccccc1N1CCCC1)c1ccc(-c2cccc([N+](=O)[O-])c2)o1	–	inactive: -4.84%
CC(C)(C)c1ccc(/C=N/NC(=O)C2CCCC2)cc1	–	inactive: -17.4%
Cc1ccc(S(=O)(=O)N2C[C@H]3N(C(=O)OC(C)C)N(C(=O)OC(C)C)C[C@H](OC(=O)NCC4CCCCC4)[C@@]3(O)C2)cc1	inconclusive: 15.8 µM [inhibitor, partial curve, poor fit]	–
O=C(c1ccccc1)N1CCC(CC2CC(c3ccc(Cl)cc3)=NO2)(C(=O)NCC2CCCCC2)CC1 (configuration not stated)	inconclusive: 2 µM [inhibitor, full curve, poor fit]	–
C=CCN(C(=O)C1=NN(C2CCS(=O)(=O)C2)C(=O)CC1)c1nc(-c2ccc([N+](=O)[O-])cc2)cs1 (configuration not stated)	inconclusive: 35.5 µM [inhibitor, single point]	–
CCc1cccc(C)c1NC(=O)COC(=O)c1c2c(nc3ccccc13)/C(=C\c1cccs1)CCC2	inconclusive: 11.2 µM [inhibitor, partial curve, poor fit]	–
COc1ccc(Cl)cc1NC(=O)CCCn1c(=O)c2cccn2c2cccnc21	inconclusive: 6.31 µM [inhibitor, full curve, poor fit]	–
Cc1ccc(C(C)C)c(OCCCN(C)Cc2ccccc2)c1	inconclusive: 17.8 µM [inhibitor, single point]	–
CCOC(=O)C1(CCCc2ccccc2)CCN(C(=O)CCOC)CC1	–	inactive: 12.9%
